Source: the supplement of paper PMC6828730
Counter-ions that a name gives are not always drawn. Some of the results follow. Many values rest on one well or one pass, so single values are uncertain.

Assays:
[1] = system: hiPSC-derived cardiomyocytes; experiment: time to death of most cells in well after compound addition (days); higher = less cardiotoxic; conditions: screen: 1; 10 µM
[2] = system: hiPSC-derived cardiomyocytes; experiment: time to death of most cells in well after compound addition (days); higher = less cardiotoxic; extreme values may be limits of the assay; conditions: 10 µM

Structure (SMILES) | time to death of most cells in well [1] | time to death of most cells in well ([2]; screen: 2) | time to death of most cells in well ([2]; screen: 3) | time to death of most cells in well ([2]; screen: 4)
CCCCCCCCCCCCCCCCOP(=O)([O-])OCC[N+](C)(C)C [Miltefosine] | 6 | > 7 | > 7 | > 7
CC(=O)Nc1nc(C)c(-c2ccc(Cl)c(S(=O)(=O)NCCO)c2)s1 | > 7 | > 7 | > 7 | > 7
Cc1ccc(NC(=O)c2ccc(CN3CCN(C)CC3)cc2)cc1Nc1nccc(-c2cccnc2)n1 [Imatinib Mesylate (STI571)] | > 7 | > 7 | > 7 | > 7
Cc1ccc(C(=O)Nc2ccc(CN3CCN(C)CC3)c(C(F)(F)F)c2)cc1C#Cc1cnc2[nH]ncc2c1 [GZD824 Dimesylate] | 0 | 1 | 3.5 | 1
COC(=O)c1ccc2c(C(=Nc3ccc(N(C)C(=O)CN4CCN(C)CC4)cc3)c3ccccc3)c(O)[nH]c2c1 [Nintedanib (BIBF 1120)] | 2 | > 7 | > 7 | > 7
CCc1nc(-c2cccc(C)c2)c(-c2ccnc(NC(=O)c3ccccc3)c2)s1 | 2 | 2 | 3 | > 7
CN(C)CCCn1cc(C2=C(c3c[nH]c4ccccc34)C(=O)NC2=O)c2ccccc21 | > 7 | > 7 | > 7 | > 7
CCCCCCCCCCCCCCCCCCOP(=O)([O-])OC1CC[N+](C)(C)CC1 [Perifosine (KRX-0401)] | > 7 | > 7 | > 7 | > 7
Oc1cccc(-c2nc(N3CCOCC3)c3oc4ncccc4c3n2)c1 | 3.5 | 4 | > 7 | 3
COCCOc1cnc2ccn([C@H](C)c3nnc4c(F)cc(-c5cnn(C)c5)cn34)c(=O)c2c1 | 2.5 | 2.5 | > 7 | > 7
O=Nc1c(-c2c(O)[nH]c3cc(Br)ccc23)[nH]c2ccccc12 | 6 | 3 | 6.5 | 4
COc1ccc(COc2cc3oc(=O)c4cc(C(C)O)ccc4c3cc2OC)cc1 (stereo not given) [Palomid 529 (P529)] | 3.5 | > 7 | > 7 | > 7
Cn1cnc2c(F)c(Nc3ccc(Br)cc3Cl)c(C(=O)NOCCO)cc21 [Selumetinib (AZD6244)] | > 7 | > 7 | > 7 | > 7
CCc1cccc(CC)c1NC(=O)N1Cc2[nH]nc(NC(=O)c3ccc(N4CCN(C)CC4)cc3)c2C1 | > 7 | > 7 | > 7 | > 7
Cc1cc([C@@H](C)Nc2ccccc2C(=O)O)c2nc(N3CCOCC3)cc(=O)n2c1 | > 7 | 5.5 | > 7 | > 7
CS(=O)(=O)CCNCc1ccc(-c2ccc3ncnc(Nc4ccc(OCc5cccc(F)c5)c(Cl)c4)c3c2)o1 | > 7 | 2.5 | > 7 | > 7
Cc1cc2c(F)c(Oc3ncnn4cc(OC[C@@H](C)O)c(C)c34)ccc2[nH]1 | > 7 | > 7 | > 7 | > 7
N#CC[C@H](C1CCCC1)n1cc(-c2ncnc3[nH]ccc23)cn1 | > 7 | > 7 | > 7 | > 7
FC(F)(F)c1ccc(/C=C/c2nc(COc3ccc(CCCCn4ccnn4)cc3)co2)cc1 [Mubritinib (TAK 165)] | 1 | 0.5 | 0.5 | 4.5
COc1cc2ncnc(Nc3ccc(O)c(Br)c3)c2cc1OC | > 7 | > 7 | > 7 | > 7
